44 sequences from the supplement of paper PMC11417369 can be followed below.

Some of the results follow.

The assay relates to PfHDP1 homeodomain (GST-tagged). The assay is described as follows: gcPBM binding intensity (ln(normalized median fluorescence intensity)); higher = stronger DNA binding. The essentials:
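Binding of GST-tagged P. falciparum DNA-binding domains, expressed in E. coli and used at about 25 μg on average, was carried out for 1 h in 1× PBS containing 1% milk, 0.2 mg/ml BSA, 0.5% salmon testes DNA and 0.03% Triton X-100. The target was an Agilent 4 × 180k array of primer-extended double-stranded 36-bp intergenic genomic probes plus negative controls, read with Alexa488 anti-GST antibody at 488 nm. Binding intensity is the highest Masliner-normalised natural-log median intensity across replicate spots of either probe orientation.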
On to “TATAAATAAATATGGAGTACCAAAAAAATTATAAAA [XGTACX_site7581]”, for which the “gcPBM binding intensity (ln)” value was 6.21.
For the sequence “ATACAAATTAAGCCTCAAGTTCTTTTTTTTAACATA [XGTACX_negctrl_site580]”, the “gcPBM binding intensity (ln)” value amounted to 6.23.
Consider “ATATAACATGGACACACACACATATATATATATTAT [CACACA_site6135]”, for which the “gcPBM binding intensity (ln)” value was 7.06.
For the sequence “GGTGCACCCATATACACACACAAATACAATGATAAA [CACACA_site1132]”, the “gcPBM binding intensity (ln)” value was 10.2.
As for “AAAAAAAAGAATTATTGTACAAAAGAACAATAAATA [XGTACX_site1368]”, the “gcPBM binding intensity (ln)” value worked out at 6.05.
For the sequence “GTGAAATTATATTTTTGTACATATATTATATATTAT [XGTACX_site3387]”, the “gcPBM binding intensity (ln)” value stood at 6.54.
As for “ATACAAAATCTAATTTGTACACAATGTTTGATTTTT [XGTACX_site5438]”, the figure is 6.17; as for “TACAAATGAGAAATATGTACATAAAAAAAAAAAAAT [XGTACX_site801]”, 6.85.
“TTGTTCTTTCAAATTATACACACCAAAAAAAAAAAA [CACACA_site3070]”: the “gcPBM binding intensity (ln)” value was 6.51.
In the case of “AATATAAATAAAAAATTGATTTCTTTAAAAAGGTAT [CACACA_negctrl_site1038]”, the “gcPBM binding intensity (ln)” value turned out to be 6.14.
With “TAATCATAAAAAAATACACACATATATAATATATAT [CACACA_site1983]”, the “gcPBM binding intensity (ln)” value was 6.75.
Consider “TTCTTTTTTTTTAAAACAAACAAACAAACAAACAAA [CACACA_negctrl_site832]”, for which the “gcPBM binding intensity (ln)” value stood at 6.6.
For the sequence “TATTTATTTATTTAGTGTACATTTATATTTGTTCAT [XGTACX_site7575]”, the “gcPBM binding intensity (ln)” value was determined as 6.87.
With “TTAATCTTTCCTACATGTACACACAGAAAAAAAAAA [XGTACX_site5213]”, the “gcPBM binding intensity (ln)” value is 6.57.
On to “TATCCATATTTGTTCACACACACACCCATTTATATA [CACACA_site3571]”, for which the “gcPBM binding intensity (ln)” value was 7.13.
As for “ATTTTTATGTTGAAAAGTACTTGAATCCCATGTAAC [XGTACX_site4453]”, the “gcPBM binding intensity (ln)” value is 6.3.
In the case of “TTATTTTTTTTGTGTTGTACAATTTATTACTACTAA [XGTACX_site346]” it was 6.88; in that of “AATATATTTTAATATACACACATATATGCTCTTTAA [CACACA_site9371]”, 6.85.
With “TTATTTATGTGTAGGGCATGCAATCGTGTTTTTAAA [TGCATGCA_site735]”, the “gcPBM binding intensity (ln)” value was found to be 8.
In the case of “GTATTTATAATACGGCGTACATAAAAAAAAAAAAAA [XGTACX_site3705]”, the “gcPBM binding intensity (ln)” value is 6.48.
In the case of “AAACAAATATGTAGCACACATTCACATAATATATTT [CACACA_site2335]”, the “gcPBM binding intensity (ln)” value is 7.01.
As for “AAAGAAAGTACCTTCACACATATAAGAATATAATAT [CACACA_site5214]”, the “gcPBM binding intensity (ln)” value is 6.41.
For “AAAAAAAAAATATATTGTACAAATAGATATGTCAAT [XGTACX_site122]”, the “gcPBM binding intensity (ln)” value is 6.66.
For “TGAAATACGAATTATTGTACTTATGTGTAAGATGGC [XGTACX_site4472]”, the “gcPBM binding intensity (ln)” value came to 6.93.
In the case of ATTCATTTACCAATGGTGCAATATATTTTTATAATG it was 10.3.
As for “TGTCAAAATATGTATACACACAATTTTTTTTTTTTT [CACACA_site2465]”, the figure is 6.61; as for “TTTTTCATAAGAAGCACACAAAAAATGATAGAGAAT [CACACA_site1417]”, 7.39; as for “TAATAAATAAAATAGAGTACAGGGATTTCATTAAAT [XGTACX_site8979]”, 6.84.
With “TATATTACTTATATTTGTACACAGAAATATAAATCA [XGTACX_site13]”, the “gcPBM binding intensity (ln)” value was 6.32.
As for “TAATATGCATAAAATTGTACAAACTTACATATAATA [XGTACX_site2752]”, the “gcPBM binding intensity (ln)” value worked out at 6.74.
On to “TTTTTTATAGGACATGCATGTTGTAGAGCTGTATAT [TGCATGCA_site704]”, for which the “gcPBM binding intensity (ln)” value was 7.09.
With “TTCATAGAATTATATATTTTAAAAAAAAAAATAATT [CACACA_negctrl_site175]”, the “gcPBM binding intensity (ln)” value worked out at 5.78.
In the case of “AATATATTTGTGTATGTGCGCAGTGTGTAATTTATT [GTGCAC_site9765]” it was 7.92; in that of “CATCTCATATTTTGAAGTACTAAGAAAAGATATAAA [XGTACX_site6867]”, 6.57.
As for “ACGTAATTAATTCATCAGATATAATTAATAATAATA [XGTACX_negctrl_site550]”, the figure is 6.42.
In the case of “ACTAAAGTGTATCACTGTACAATTCTTCTCTTTTTT [XGTACX_site8705]” it was 6.59.
As for “ATAAATTTTTTTTTTTTTTTTTTTCTTTTTCTTTGT [CACACA_negctrl_site1231]”, the “gcPBM binding intensity (ln)” value was 5.63.
As for “AAAAAAAAAAAAAAAAGTACACAGTAGAATTAAATG [XGTACX_site1843]”, the “gcPBM binding intensity (ln)” value is 6.39.
Consider “GAACAATAAATAAAAAAAATAAAAATAAAAATAAAA [TGCATGCA_negctrl_site35]”, for which the “gcPBM binding intensity (ln)” value worked out at 6.41.
For “ATAAGTAAATTAGATACACACATGATATCATACATA [CACACA_site1623]”, the “gcPBM binding intensity (ln)” value was found to be 6.43.
As for “TTTTTTTTTTAATTAACACACATAAATATATATATA [CACACA_site3275]”, the figure is 8.11; as for “TCAATAATAACAAATGAACACACATATATATGAGCA [CACACA_site8663]”, 6.52.
As for “AGAAAAAAATAATGTACACACACATAGATGTTTATA [CACACA_site4271]”, the figure is 6.28; as for “ATAAAACAAATGAGTACACACACATAAAAATTGAAA [CACACA_site7949]”, 6.67.
